Reference: PubChem BioAssay AID493208 (National Center for Advancing Translational Sciences (NCATS), 2011)
The whole screen tested about 44,000 compounds, of which about 340 (0.77%) were called active. Not shown: some 5% with an inconclusive outcome. Calls follow the shape of the dose curve; as a rule, active = well fitted inhibition curve with a large enough effect; inconclusive = small, poorly fitted or top-dose-only effect; inactive = flat fitted curve, though single readings scatter. This is one part of the list.

Test: Acumen qHTS Assay for Inhibitors of the mTORC1 Signaling Pathway in MEF (Tsc2-/-, p53-/-) Cells: Sytravon;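 also: plate controls were DMSO for no effect and rapamycin for full effect; nearly all actives have a fitted effect of over 50% in size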
Details: phospho-rpS6 immunofluorescence/PI, 24 h; series mostly up to 38.3 µM; activity change, negative = inhibition: at the top concentration
Procedure, shortened: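 Immunofluorescence of rpS6 phosphorylation in Tsc2-/-, p53-/- MEFs after 24 h compound exposure, normalized to propidium iodide signal. Activity is expressed as % positive cells, thresholded with 7.5 nM rapamycin.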

Activity change, negative = inhibition, inactive:
CC(=O)c1ccc(N2C(=O)Nc3ccccc3S2(=O)=O)cc1 0.666%
Cc1ccc(N2CC(NC(=O)c3ccccc3Br)CC2=O)cc1 (stereo unspecified) -8%
O=C(Nc1ccc(F)c(Cl)c1)C1CCN(S(=O)(=O)c2ccc3c(c2)CCCN3C(=O)C2CCC2)CC1 -7.17%
Cc1ccc(CSc2cn(CCNC(=O)c3cccs3)c3ccccc23)cc1 1.48%
O=C(Cn1c(SCC(=O)Nc2ccc(F)cc2)nc2ccccc21)NCc1ccc(Cl)cc1 -12.5%
Nc1ncc(S(=O)(=O)Nc2ccc(OC(F)(F)F)cc2)cn1 -9.56%
COc1ccccc1N(CC(=O)Nc1cc(C)cc(C)c1)S(C)(=O)=O 2.71%
O=C(Nc1nnc(S(=O)(=O)N2CCCCCC2)s1)c1ccccc1 0%
CCc1ccc(NS(=O)(=O)c2c(-c3ccccc3)csc2C(=O)OC)cc1 -24.4%
Cc1cc(NCc2ccc(Cl)cc2)n2cnnc2n1 -16.2%
Nc1nonc1-c1nc2ccccc2n1CC(=O)Nc1cccc(Cl)c1Cl -22.7%
CCc1cccc(NC(=O)Cn2ccn3nc(-c4ccc(OC)c(OC)c4)cc3c2=O)c1 6.8%
O=C(Nc1ccc(F)cc1)c1ccc2c(c1)NC(=O)c1ccccc1S2 -3.18%
CN(Cc1ccco1)S(=O)(=O)c1nnc(NC(=O)c2ccccc2)s1 -4.79%
Cc1cccc(-c2noc(-c3ccc(NCc4cccnc4)c([N+](=O)[O-])c3)n2)c1 2.6%
CCOc1ccc(NC(=O)c2nnn(-c3ccc(F)c(Cl)c3)c2C)cc1 2.18%
Cc1ccccc1NC(=O)Cn1cc(S(=O)(=O)N2CCCC2)c(S(=O)(=O)N2CCCC2)c1 7.22%
CC1=C(C(=O)Nc2ccccc2)C(c2ccccn2)n2nc(SCc3ccccc3Cl)nc2N1 (stereo unspecified) 0%
COC(=O)c1ccc(Oc2nc3c(c(=O)n(C)c(=O)n3C)n2Cc2ccc(Cl)c(Cl)c2)cc1 3.28%
CCC(=O)Nc1cccc(OCc2cc(=O)n3cc(C)ccc3n2)c1 -4.2%
COc1ccc(NC(=O)c2oc3ccccc3c2NC(=O)C23CC4CC(CC(C4)C2)C3)cc1 -1.3%
COc1ccc(OC)c(NC(=O)c2c(NCc3ccc(N(C)C)cc3)sc3c2CCCC3)c1 -19.1%
COc1cc(OC)cc(C(=O)Nc2ccc3c(c2)n(C)c(=O)c(=O)n3C)c1 -9.29%
Cc1ccc(OCc2cc(=O)n3c4c(sc3n2)CCCC4)cc1C -2.43%
COc1ccc(S(=O)(=O)N(CC(=O)Nc2ccc3c(c2)OCO3)c2ccc(C)cc2)cc1 5.42%
O=C(NCc1ccccc1Cl)c1ccc(NC(=O)N2CCSc3ccccc32)cc1 1.14%
Cn1cc(S(=O)(=O)N2CCCCC2)cc1C(=O)Nc1ccc(OC(F)(F)F)cc1 -10.3%
O=C(Cn1cc(S(=O)(=O)c2ccccc2)c(=O)c2cc3c(cc21)OCO3)Nc1ccccc1 -21.4%
O=C(NCCCc1ccccc1)c1nn(-c2ccccc2)nc1CO 1.76%
CCc1ccc2occ(CC(=O)Nc3sc4c(c3C(=O)NCCOC)CCCC4)c2c1 3.52%
Cc1ccc(S(=O)(=O)C(CNC(=O)c2ccc(C(F)(F)F)cc2)c2ccco2)cc1 (stereo unspecified) -0.954%
Cc1noc(-c2ccc(-c3noc(-c4cccc(Cl)c4)n3)cc2)n1 -0.443%
Cc1nc2nc(SCC(=O)NC3CCC(C)CC3)nn2c(C)c1Cc1ccccc1Cl (stereo unspecified) -2.04%
Cc1nc2c(-c3ccccc3)c(C)nn2c(C)c1CCC(=O)NCc1ccccc1 3.54%
CCn1cc2nc(SCc3cccc(C)c3)n(CCc3ccccc3)c(=O)c2n1 -17%
CCOC(=O)c1ccc(NC(=O)CCC(=O)N2CCSc3ccccc32)cc1 -12.8%
CCc1ccc2oc(-c3ccc(C)c(NC(=O)c4ccc(C#N)cc4F)c3)nc2c1 -7.12%
COc1ccc2c(c1)c(=O)c(S(=O)(=O)c1ccccc1)cn2CC(=O)Nc1ccc2c(c1)OCO2 -17.3%
CCCN(C(=O)Cn1ncc2c([nH]c3ccccc32)c1=O)c1ccc(F)cc1 0.632%
CC(=O)c1cccc(NC(=O)CCCSc2nc(-c3ccco3)cc(C(F)(F)F)n2)c1 -18.9%
CCOC(=O)C1CCCN(C(=O)c2ccc3c(c2)N(Cc2ccccc2F)C(=O)c2ccccc2S3=O)C1 (stereo unspecified) -1.54%
COc1ccc(CCNC(=O)CCn2c(=O)c3ccccc3n(CC(=O)Nc3cc(Cl)ccc3C)c2=O)cc1OC -1.44%
CCc1ccccc1NC(=O)Nc1cc(C(=O)NCc2ccccc2OC)ccc1N1CCCC1 2.53%
COc1ccc(NC(=O)CN2C(=O)C(c3ccc(C)cc3)=NC23CCCCCC3)cc1Cl 7.3%
Cc1ccc(NC(=O)c2ccc(CNS(=O)(=O)c3ccc4c(c3)C(C)(C)C(=O)N4C)cc2)cc1 -18.7%
CN(C)CCNC(=O)C(=O)NCC(c1cccnc1)N1CCN(c2ccccc2)CC1 (stereo unspecified) 4.98%
COc1cccc(-c2nc(SCC(=O)NCC3CCCO3)c(-c3ccc(Cl)cc3)[nH]2)c1 (stereo unspecified) 0.389%
Clc1cccc(-n2ncc3c(Nc4ccc5c(c4)OCCO5)ncnc32)c1 5.8%
Cc1ccc(C)c(Cn2c(=O)n(-c3ccc(F)cc3)c(=O)c3sc4ccccc4c32)c1 -12.6%
COc1ccc(N2CCN(C(=O)Cn3c(-c4cccs4)cc4ccccc43)CC2)cc1 0.554%
CC(=O)N1CCc2cc(S(=O)(=O)NC(Cc3ccccc3)C(=O)Nc3ccc(C)cc3C)ccc21 (stereo unspecified) -24.4%
O=C(CSc1nc2ccsc2c(=O)n1Cc1ccccc1F)NCc1ccccc1Cl -4.38%
CCc1ccc(NC(=O)CC2C(=O)N(c3ccc(OC)cc3)C(=O)N2Cc2cccs2)cc1 (stereo unspecified) 2.84%
CCC(=O)N1CCCc2cc(S(=O)(=O)N3CCC(C(=O)Nc4cccc(Cl)c4)CC3)ccc21 -6.92%
O=C(Nc1cccc(Cl)c1Cl)c1cc(S(=O)(=O)N2CCCc3ccccc32)ccc1F -11.6%
COc1cc(OC)c(N(C)C(=O)CSc2c3c(nc4ccc(Cl)cc24)CCCC3)cc1Cl -1.32%
CCOC(=O)c1cnc2c(C)cc(C)cc2c1Nc1ccccc1OCC 9.52%
COc1ccc(C(=O)Nc2ccc3oc(-c4cc(Cl)ccc4Cl)nc3c2)cc1Br -0.537%
Cc1nn2c(-c3ccco3)ccnc2c1-c1ccc(Cl)cc1 -1.83%
O=c1cc2nc(-c3ccccc3)nc(SCCOc3ccc(Cl)cc3)n2[nH]1 1.27%
COC(=O)c1c(NC(=O)/C=C/c2ccc(OC)cc2)sc2c1CCC2 6.14%
